Laboratory results reported in PubChem BioAssay AID624296 (National Center for Advancing Translational Sciences (NCATS), 2012).
Out of some 350,000 compounds screened, about 9,900 (2.8%) were called active. This list was built around the results that the source calls inconclusive (neither active nor inactive); the mix of calls is not that of the screen. The call rests on the fitted dose curve; in most records, active means well fitted activation curve with a large enough effect; inconclusive means small, poorly fitted or top-dose-only effect; inactive means no such curve, though single readings can be large or run the other way. Potencies of inconclusive entries are left out as doubtful fits.

assay: A quantitative high throughput screen for small molecules that induce DNA re-replication in MCF 10a normal breast cells.; further: nearly all actives have a fitted effect of over 50% in size; on activity, positive = re-replication: % of control where 0% means no effect; conditions: MCF 10A DNA re-replication, Hoechst nuclear intensity, 48 h; activity, positive = re-replication: at 46.1 µM (top of the series)
Potency means the concentration at half of the fitted maximal effect; tags describe the fitted curve by direction and shape.

| Structure (SMILES) | Potency | activity, positive = re-replication |
| --- | --- | --- |
| Cc1ccc(C(C)NC(=O)/C(C#N)=C\c2c(C)[nH]c3ccccc23)cc1 (stereo unspecified) | inconclusive [activator, single point] |  |
| CCN(CC(=O)Nc1ccccc1OC)C(=O)/C=C/c1cccs1 |  | inactive: 5.91% |
| COc1cccc(N2CCN(S(=O)(=O)c3c(C)[nH]c(C)c3C(=O)N3CCCC3)CC2)c1 |  | inactive: 5.67% |
| O=C(N/N=C1/CC2CCC1C2)c1cc2ccccc2cc1O (stereo unspecified) |  | inactive: 0.904% |
| COc1cc(/C=C/C(=O)OCC(=O)Nc2cccc(Oc3ccccc3)c2)ccc1O | inconclusive [activator, single point] |  |
| CSc1ccccc1NC(=O)Nc1cccc(Cl)c1C |  | inactive: -2.26% |
| Cc1cc(/C=C(/C#N)c2cccc(F)c2)c(C)n1-c1cccnc1 | inconclusive [activator, full curve, poor fit] |  |
| CC(=O)Nc1ccc(-c2nnc(SCc3c(C)cc(C)cc3C)n2C)cc1 |  | inactive: 11.7% |
| CC(=O)Nc1ccc(NC(=O)COC(=O)/C(=C/c2ccccc2)n2nnnc2C)cc1 | inconclusive [activator, single point] |  |
| COc1cccc(-c2nnc(NC(=O)c3ccc(S(=O)(=O)N(CC(C)C)CC(C)C)cc3)o2)c1 | inconclusive [activator, partial curve, poor fit] |  |
| CC(=O)Oc1cc2c(cc1Cl)C1(CC(c3ccccc3Cl)O2)CC(C)(C)NC(=S)N1 (stereo unspecified) | inconclusive [activator, partial curve] |  |
| COc1cccc(-c2nnc(Nc3nc4c(F)cccc4s3)o2)c1 | active: 16.4 µM |  |
| CCOc1ccc(NS(=O)(=O)c2ccc(-c3cnc(C4CC4)o3)cc2)cc1 | active: 6.51 µM |  |
| COc1ccc(NCC(=O)NN=C2CCS(=O)(=O)c3ccc(F)cc32)cc1 |  | inactive: 3.61% |
| O=C(NCc1nc2ccccc2[nH]1)c1c(F)c(F)c(F)c(F)c1F |  | inactive: -1.65% |
| NS(=O)(=O)c1ccc(NC(=S)NC(=O)c2ccc3c(c2)OCO3)cc1 |  | inactive: -6.45% |
| NC(=NCCc1ccccc1)NC(=O)c1cc(Cl)ccc1O | inconclusive [activator, single point] |  |
| CCCCCC1CCC(C(=O)NNC(=S)NCC)CC1 (stereo unspecified) | inconclusive [activator, partial curve, poor fit] |  |
| O=c1[nH]c2ccccc2nc1-c1c[nH]c2ccccc12 |  | inactive: 24.8% |
| O=C(N/N=C/c1cccc(OC(=O)c2cccc(Br)c2)c1)c1ccncc1 | inconclusive [activator, partial curve, poor fit] |  |
| COc1ccc(CCN2C(=O)C(Oc3ccccc3C)C2c2ccc3c(c2)OCO3)cc1 (stereo unspecified) | inconclusive [activator, full curve] |  |
